# According to PubChem BioAssay (NCI):
# Where “and” joins values, the source holds several entries; their conditions need not be identical. Identical values can stand only once.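 The compound was tested at five concentrations on cells cultured in 96-well plates, with a 48-hour exposure period. GI50 is the concentration that inhibits growth by half. TGI denotes the concentration required for complete inhibition of growth.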 Peptide text beside a SMILES is read from it. * marks the point of attachment. Cbz = O=C(OCc1ccccc1)*
# Tested on: NCI-H322M lung
# Experiment: growth of human tumour cells (NCI), 48 h
Compound,TGI,GI50 [µM]
CN1C[C@@H]2CCCN2P1Oc1cccc2cccnc12 (stereo partly specified),> 100 µM,–
NC(CCCCNc1ccn(C2OC(CO)C(O)C2O)c(=O)n1)C(=O)O (stereo unspecified),> 100 µM,–
O=C(/C=C/c1cccc(Cl)c1)c1ccc(Cl)cc1Cl,27.9 µM,11.6
Oc1ccc2ccccc2c1N=Nc1ccccc1,> 100 µM,–
Cn1cnc([N+](=O)[O-])c1Sc1ncnc2c1ncn2C1OC(CO)C(O)C1O (stereo unspecified),> 100 µM,7.58
COc1cc2c(c(OC)c1OC)C(=O)CC2N (stereo unspecified),> 100 µM,–
Cc1ccc2c(O)c3c(cc2c1)C(=O)c1c2c(cc(O)c1C3=O)C1(C)OC(O2)C(O)C(N(C)C)C1O (stereo unspecified),2.91 µM,–
CC(=O)OC[C@@]12C[C@H]3C(=O)C(C)(C)C[C@H]3[C@]1(C)[C@@H](OC(C)=O)[C@]1(O)[C@H]([C@@H](OC(=O)c3ccccc3)[C@@H](C)[C@H]1OC(C)=O)[C@H]2OC(C)=O,> 20 µM,–
Cc1ccc(C2=Nc3c(N)nc(N)nc3NC(c3ccccc3)C2)cc1 (stereo unspecified),29.2 µM and 32 µM,–
O=C(/C=C\c1ccnc2ccccc12)c1ccc([N+](=O)[O-])cc1,> 100 µM,> 100
Cn1c(=O)n(CC(Br)CBr)c(=O)n(CC(Br)CBr)c1=O (stereo unspecified),> 100 µM,–
NC(CSC(c1ccccc1)(c1ccccc1)c1ccc2ccccc2c1)C(=O)O (stereo unspecified),23.8 µM,0.0478
Cn1ccnc1C(=O)/C=C/c1ccc(C(=O)Nc2nc3ccccc3[nH]2)cc1,> 25 µM,4.19
O=Nc1c(O)ccc2ccccc12,28 µM,14.8
COC(=O)C1=C(C)NC(C)=C([N+](=O)[O-])C1c1cccc(NO)c1 (stereo unspecified),> 100 µM,–
Cn1c(=O)c2[nH]c(COc3ccc(C(C)(C)C)cc3)nc2n(C)c1=O,65.3 µM,14.4
COc1cc2c(cc1C)n(O)c(C)c(C(=O)C/C(=N/NC(=O)C[N+](C)(C)C)C(=O)Nc1cccc(Cl)c1C)[n+]2=O,> 100 µM,–
CCCCCCCSCC(O)COC(c1ccccc1)(c1ccccc1)c1ccccc1 (stereo unspecified),> 100 µM,–
Fc1ccc(C(OCCN2CCC3CCC(C2)N3Cc2cc3ccccc3[nH]2)c2ccc(F)cc2)cc1 (stereo unspecified),8.01 µM,–
O=C(CCN1CCCC1)Nc1ccc2c(NCCCc3ccccc3)c3ccccc3nc2c1,2.75 µM,1.3
COc1cc(C2C(C#N)=C(N)OC3=C2C(=O)c2ccccc2C3=O)cc(OC)c1OC (stereo unspecified),41.2 µM,10.4
CN1CCN(c2ccc3[nH]c(C4=C(O)c5nc(CO)n(C)c5C(=O)C4=O)nc3n2)CC1,> 100 µM,–
Cc1nc2c(-c3ccccc3)[nH]c(C)c2c(=O)o1,> 100 µM,–
CCCCCCCCCC(=O)CC(=O)c1c(O)cccc1O,> 100 µM,–
FC(F)(F)c1ccc(-c2cnc(Br)nc2NC2CCCCCC2)cc1,> 100 µM,> 100

Compound,TGI,GI50 [µM]
CO[C@H]1O[C@@H]2CO[C@@H](c3ccccc3)O[C@H]2C[C@]12CCC/C=C\CO2,> 75 µM,–
COc1ccc(/C=C(\C#N)c2cc3ccccc3n2C)cc1,> 100 µM,0.57
O=[N+]([O-])c1ccccc1C1N2CCCCC2[C@@H]2c3[nH]c4ccccc4c3CCN12 (stereo partly specified),27 µM,–
CCOC(=O)c1c(SCCO)n(-c2ccccc2)c(=S)n(-c2ccccc2)c1=O,> 100 µM,–
C=C1C(=O)OC2/C=C(\C)C(O)/C=C\C(C)(O)CC(OC(=O)/C(C)=C/C)C12 (stereo unspecified),> 100 µM,–
COc1ccc(/C=C2\COc3ccc(-c4ccccc4)cc3C2=O)cc1O,12.6 µM,2.43
O=C1c2ccccc2C(=O)N1c1ccc(OCCN2CCCCC2)cc1,> 100 µM,–
O=C(NCc1ccccc1)c1cnc(Cl)cn1,> 100 µM,–
CSCCC(NC(c1ccccc1)c1ccccc1)[P+](=O)O (stereo unspecified),> 100 µM,–
CCC1(OC(C)=O)C(=O)OCc2c1cc1n(c2=O)Cc2cc3ccccc3nc2-1 (stereo unspecified),> 100 µM,–
NC(=O)N(O)c1cccc(Br)c1,> 100 µM,–
O=c1[nH]c(=S)[nH]c(O)c1/C=C1\C=CC=N1,75.2 µM,–
C=CCn1c(=O)c(C)cn(/C(=C/C(=O)OCC)C(=O)OCC)c1=O,> 100 µM,–
CNC(=O)CN1CC(=O)N(C)C(=O)C1,> 100 µM,–
Cc1[nH]c2ccccc2c1C=Nc1ccc(Oc2ccccc2)cc1,29.1 µM,–
COCN1C(=O)[C@@H]2CCCN2C(=O)c2cc([N+](=O)[O-])ccc21,> 100 µM,–
O/N=C\c1cc(O)c(O)c(/C=N/O)c1,> 100 µM,–
Nc1ncc(Cc2nc3ccccc3s2)s1,> 100 µM,–
COc1ccc(C(Nc2ncccn2)c2cc3c(cc2O)OCO3)cc1 (stereo unspecified),64.3 µM,–
CN(O)C(=O)Cc1ccccc1,> 100 µM,–
CCSC1=CC(=O)c2ccccc2C1=O,48.2 µM,17.6
O=C1C(c2ccccc2)=C(c2ccccc2)C(c2ccc(CCCCCCc3ccc(C4=C(c5ccccc5)C(=O)C(c5ccccc5)=C4c4ccccc4)cc3)cc2)=C1c1ccccc1,> 100 µM,–
COc1ccccc1-n1c(SCc2cc(OC)c(OC)c(OC)c2)nc2ccc(Cl)cc2c1=O,> 100 µM,6.11
N#Cc1nc(-c2ccccc2)oc1S(=O)(=O)N1CCOCC1,60.1 µM,19.2
COc1ccc([C@H]2O[C@@H](CO)C[C@]2(O)c2ccc(OC)cc2)cc1,> 100 µM,> 100

Compound,TGI,GI50 [µM]
CC1(C)CC(=O)c2c(nc3ccc4ccccc4c3c2-c2ccc(NC(=O)CCCCC(=O)Nc3ccc(-c4c5c(nc6ccc7ccccc7c46)CC(C)(C)CC5=O)cc3)cc2)C1,> 100 µM,–
CCC1(C)N=C(C(N)=O)c2ncn(N=C(C)C)c2N1 (stereo unspecified),> 100 µM,–
C#Cc1ccc(NC(=O)c2ccc(/C=C/C(=O)c3nccn3C)cc2)cc1,1.17 µM,0.459
O=C1c2cc(CCl)sc2C(=O)c2ccsc21,2.63 µM,–
COc1ccc2c(c1)OC13Oc4cc(OC)ccc4C=C1CCCC3=C2,> 100 µM,> 100
CC(C)(C)/C(O)=C\c1nc2cc(C(F)(F)F)ccc2[nH]c1=O,> 100 µM,–
NNC(=O)c1n[nH]nc1SSc1n[nH]nc1C(=O)NN,> 100 µM,–
CC(C)C(N)(C(=O)O)c1ccccc1 (stereo unspecified),> 100 µM,–
C[C@@H]1CC[C@@]2(OC1)O[C@H]1C[C@H]3[C@@H]4CC=C5C[C@@H](O[C@@H]6O[C@H](CO)[C@@H](O[C@@H]7O[C@@H](CO)[C@H](O)[C@H]7O)[C@H](O)[C@H]6O[C@@H]6O[C@@H](C)[C@H](O)[C@@H](O)[C@H]6O)CC[C@]5(C)[C@H]4CC[C@]3(C)[C@H]1[C@@H]2C,2.58 µM,1.31
CC(=O)Oc1c(OC(C)=O)c(-c2ccc(O)c(O)c2)c(O)c(O)c1-c1ccc(O)cc1,> 100 µM,–
O=C1C2=C(c3ccccc31)C(c1ccccc1Cl)N1C(=O)CSC1=N2 (stereo unspecified),> 100 µM,–
c1ccc(-c2cc(-c3cc(-c4ccccc4)n(-c4ccccc4)n3)nn2-c2ccccc2)cc1,> 100 µM,–
COc1ccc(O)c2c1C(=O)CCCC2=O,> 100 µM,–
C#CCOC(=O)c1ccccc1OC(C)=O,> 100 µM,–
Nc1c(C(=O)c2ccccc2)[nH]c(NCc2ccccc2)c1C(=S)Nc1ccccc1,> 100 µM,–
CSc1c(C#N)c2n(c3ccccc3[n+]2C)c2ncccc12,> 100 µM,–
COc1ccc(C(O)c2cc3c(N)c(C(=O)Nc4cccc(Br)c4)sc3nc2C)cc1 (stereo unspecified),> 100 µM,0.264
CC(=O)N1CC(F)(F)c2c(Sc3ncc(N4CCC5(CC4)COC[C@H]5N)nc3N)cccc21,> 100 µM,3.93
Cc1n[nH]c(=O)n1N=C(c1ccccc1)c1ccccc1,> 100 µM,–
CCCCCCCCCN1CCC(=O)C(C(=O)OC)C1 (stereo unspecified),> 100 µM,–
C[Se]C(=O)CC1=C2C=C(F)C=CC2/C(=C\c2ccc(S(C)=O)cc2)C1C (stereo unspecified),3.31 µM,0.159
O=c1cccccc1NCCCCNc1cccccc1=O,> 100 µM,–
O=c1c([Se]c2coc3ccccc3c2=O)coc2ccccc12,12.5 µM,–
CC[C@@H]1OC2(C)CC(S(=O)(=O)c3ccccc3)CC1O2 (stereo partly specified),> 100 µM,–
CCN(CC)CCCNC(=O)Cc1ccccc1Nc1c(Cl)cccc1Cl,28.9 µM,–

Compound,TGI,GI50 [µM]
COc1ccc2c(c1)CC[C@@H]1C2CC[C@]2(C)C(=O)NC(=O)CC12 (stereo partly specified),> 100 µM,–
COc1cccc(C2C(C(=O)Nc3cc(=O)n(C)c(=O)n3C)=C(C)NC(C)=C2C(=O)Nc2cc(=O)n(C)c(=O)n2C)c1O,> 100 µM,–
CCc1cccc(C)c1NC(=O)NS(=O)(=O)c1ccc(C)cc1,> 100 µM,–
O=C(/C=C/c1ccc(Cl)c(Cl)c1)Oc1ccc(/C=C2\CCCCC2=O)cc1,> 100 µM,–
O=C(/C=C/c1ccco1)Nc1ncc(Cc2ccc(F)cc2)s1,> 100 µM,0.23
O=C(/C=C/c1ccc(O)c(O)c1)OCCOC(=O)/C=C/c1ccc(O)c(O)c1,> 100 µM,–
CCOC(=O)C(C)NC(=O)C(C)NC(=O)C(C)NC(=O)C(C)NC(=O)C(C)NC(=O)C(C)NC(=O)C(C)NC(=O)OCc1ccccc1 (stereo unspecified) (Cbz-AAAAAAA-OEt; configuration not given here),> 100 µM,–
COC1=C(OC)CCC(/C(C#N)=C/c2ccc(OC)c(OC)c2)=C1,> 100 µM,–
CCOC(=O)c1nc2cc(C(F)(F)F)ccc2nc1Nc1ccc(Cl)c(Cl)c1,> 100 µM,–
CCOC(=O)C12CC1(C(=O)OCC)C1CCC2C1 (stereo unspecified),> 100 µM,–
COc1ccccc1/C=C\c1cc(OC)c(OC)c(OC)c1,> 100 µM,–
Cc1ccc(/C=N/Nc2ncccn2)s1,> 100 µM,–
Cc1cc(=Nc2ccc3c(c2)c(N)cc(C)[n+]3C)nc(N)n1C,> 100 µM,–
CC(=O)Oc1cccc2c1C(=O)c1c(OC(C)=O)cc(C)cc1C2=O,> 100 µM,–
S=C(Nc1ccc(Br)cn1)NC12CC3CC(CC(C3)C1)C2,61.6 µM,–
C=C(C)[C@H]1CC/C(C)=C/CCC(C)C(=O)CC/C(CO)=C\[C@@H]1O (stereo partly specified),> 100 µM,> 100
CC(C)(C)C=C=C(C(C)(C)C)P(=O)(O)O,> 100 µM,–
COc1cc2c(cc1OC)C(Cl)C(c1cc(OC)c(OC)c(OC)c1)=C2Cl (stereo unspecified),34.5 µM,–
Cc1cc(C)c(C(=O)OC(c2ccccc2)C(c2ccccc2)N2CCOCC2)c(C)c1 (stereo unspecified),> 100 µM,–
CCOC(=O)C(C)(C)Oc1ccc2c(-c3ccc(Cl)cc3)cc(=O)oc2c1,> 100 µM,–
Oc1ccccc1-n1c(-c2ccccc2)ccc1-c1ccccc1,26.3 µM,10.3
O=c1[nH]c(-c2ccc(C(F)(F)F)cc2)nc2c1CSCC2,> 100 µM,> 67.2
N#Cc1c(C#N)c(SSc2c(C#N)c(C#N)c(N)n2-c2ccccc2)n(-c2ccccc2)c1N,49.3 µM,–
CC(=O)c1cccc(NC2C(N)C(NC(=O)N(C)C)(C(C)O)C(C)(O)C2(O)COC(=O)c2c(C)cccc2O)c1 (stereo unspecified),0.302 µM,–
Cc1ccc2[nH]c3c(C)c4ccncc4c(C)c3c2c1,1.87 µM,–
